# Measured values as given in article PMC4336329 (PLoS ONE, 2015).
# Screen size: about 310,000 compounds; about 2,200 (0.71%) showed an effect of 50% or more. The effect is printed as a negative number. Some of the results follow.
# Biological target: human ether-à-go-go-related gene (hERG) potassium channel (human, UniProt Q12809)
# Assay: primary screen, population patch clamp on CHO cells stably expressing hERG
# Sequence of human ether-à-go-go-related gene (hERG) potassium channel (Q12809 whole entry, looked up): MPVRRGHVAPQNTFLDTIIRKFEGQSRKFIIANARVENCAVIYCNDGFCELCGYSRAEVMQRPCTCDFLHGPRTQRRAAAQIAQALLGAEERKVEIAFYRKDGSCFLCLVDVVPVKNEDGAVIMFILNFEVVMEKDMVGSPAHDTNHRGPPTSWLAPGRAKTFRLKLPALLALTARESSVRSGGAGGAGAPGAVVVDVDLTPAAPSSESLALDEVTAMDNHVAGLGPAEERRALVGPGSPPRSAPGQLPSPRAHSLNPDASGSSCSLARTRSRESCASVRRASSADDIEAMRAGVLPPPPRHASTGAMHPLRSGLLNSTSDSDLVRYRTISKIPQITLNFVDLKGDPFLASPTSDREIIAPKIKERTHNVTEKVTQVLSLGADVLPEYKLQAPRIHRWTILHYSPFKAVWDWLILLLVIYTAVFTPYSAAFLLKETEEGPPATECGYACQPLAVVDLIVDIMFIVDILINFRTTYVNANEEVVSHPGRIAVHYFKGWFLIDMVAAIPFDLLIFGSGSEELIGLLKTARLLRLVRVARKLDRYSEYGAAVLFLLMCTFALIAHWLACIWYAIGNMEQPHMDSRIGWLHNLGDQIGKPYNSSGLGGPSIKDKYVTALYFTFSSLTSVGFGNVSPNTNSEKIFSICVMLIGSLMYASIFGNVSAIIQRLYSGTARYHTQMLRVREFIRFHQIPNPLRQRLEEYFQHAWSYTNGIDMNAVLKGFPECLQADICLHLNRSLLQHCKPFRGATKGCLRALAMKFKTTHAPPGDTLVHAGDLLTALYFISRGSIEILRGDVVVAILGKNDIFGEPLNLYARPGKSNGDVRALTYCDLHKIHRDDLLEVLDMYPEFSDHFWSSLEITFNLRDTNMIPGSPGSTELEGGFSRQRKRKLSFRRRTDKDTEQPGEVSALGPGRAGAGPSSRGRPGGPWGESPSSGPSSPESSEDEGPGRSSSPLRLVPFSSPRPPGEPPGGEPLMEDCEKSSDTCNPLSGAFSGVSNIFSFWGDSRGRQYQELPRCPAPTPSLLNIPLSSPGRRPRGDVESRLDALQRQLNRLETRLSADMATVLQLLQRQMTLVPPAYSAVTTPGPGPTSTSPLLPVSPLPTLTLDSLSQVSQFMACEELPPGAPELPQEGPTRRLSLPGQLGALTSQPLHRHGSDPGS
row,SMILES,"hERG current change (%, negative = inhibition) at 1uM [%]"
1,CC(C)N(CCCNC(=O)CC1Oc2ccccc2NC1=O)Cc1ccccc1 (stereo not drawn),-0.508
2,O=C(NC1=NCCS1)c1ccc([N+](=O)[O-])cc1Cl,5.24
3,CC(=O)C(=Cc1cn(-c2ccccc2)nc1-c1ccccc1)C(C)=O,-3.92
4,Cc1ccc(-c2c[n+](CC(=O)c3ccc(Br)cc3)c3n2CCCCC3)cc1.[Br-],-0.618
5,COC(=O)Cn1c2ccc(F)cc2c2nc(C)sc21,16
6,COc1cccc(NC(=O)c2ccc(N3C(=O)C4CC=C(C)CC4C3=O)cc2)c1 (stereo not drawn),12.4
7,CC(=O)N1c2ccc(S(=O)(=O)N3CCC(C(=O)N4CCCCC4)CC3)cc2CC1C (stereo not drawn),14.3
8,Nc1nnc(CC(=O)N2CCCCC2)s1,9.17
9,CCCCC(=O)C1C(=O)NC(=O)NC1=O,4.58
10,COc1cccc2c(=O)c3c([nH]c12)OC(C)(C)C3,13.7
11,COCCNc1nc(-c2cc3ccccc3o2)cs1,8.37
12,CCOc1ccc(NC(=O)CSc2nnc(C)n2CCCOC)cc1,12.3
13,CCCCN=C1NN=C(c2ccc3c(c2)OCCO3)CS1,-0.367
14,C=CCNC(=O)/C(=C\C=C\c1ccccc1)NC(=O)c1ccc(OCCCC)cc1,8.17
15,CCC1CCC/C1=N\NC(=O)CCC(=O)Nc1ccccc1Cl (stereo not drawn),12
16,Cn1cnnc1SCC(=O)Nc1sccc1C#N,5.3
17,Cc1cc(C(=O)Nc2ccc3c(c2)OCCO3)nn1C(C)(C)C,7.95
18,COCCOC(=O)c1c(C)n(C)c2ccc(OC(=O)c3ccco3)cc12,-3.05
19,CCOC(=O)C(O)(c1ccc(N(C)C(=O)COc2ccccc2)cc1)C(F)(F)F (stereo not drawn),-11.9
20,CN(C)CCCN=Cc1c(O)n(Cc2ccco2)c(=O)[nH]c1=O,10.6

row,SMILES,"hERG current change (%, negative = inhibition) at 1uM [%]"
1,CCOC(=O)C1(Cc2ccccc2)CCCN(CCCn2cccn2)C1 (stereo not drawn),3.88
2,O=C(CN(C(=O)c1csnn1)c1ccc(F)cc1)NCCc1ccccc1,14.1
3,Nc1nc2n(n1)C(c1c(F)cccc1Cl)CC(c1ccc(F)cc1)N2 (stereo not drawn),-37.2
4,CCOCCCNC(=O)c1ccc2c(c1)OCO2,2.77
5,Cc1cc(C)cc(C(=O)n2cnnc2N)c1,11.3
6,COc1cccc(-c2nnc(N)o2)c1,7.74
7,CCS(=O)(=O)N1CCC(C(=O)NCc2ccc(F)cc2)CC1,12.2
8,COc1ccc(C(CC(=O)N2CCCC2)c2c(O)cc(OC)cc2OC)cc1 (stereo not drawn),11.1
9,COc1ccc(NC(=O)c2ccc(COc3ccccc3)o2)c(OC)c1,10.8
10,O=C(Nc1nonc1NC(=O)C1CCCCC1)C1CCCCC1,12.8
11,COc1ccc(-c2nnn(CC(=O)N(C3CCCCC3)C(C)C(=O)NC3CCCC3)n2)cc1OC (stereo not drawn),-6.3
12,O=C(NC1CCCCCCC1)c1ccc2c(c1)N(Cc1ccc(F)cc1)C(=O)CS2=O (stereo not drawn),-2.87
13,Cc1ccc(S(=O)(=O)NNC(=S)NCC2CCCO2)cc1 (stereo not drawn),11.6
14,C=CCn1c(-c2ccccc2)n[nH]c1=S,8.84
15,COc1ccc(CCNC(=O)c2cccnc2)cc1,6.01
16,C[C@@]12C(=O)N(Cc3ccccc3)CC(=O)N1[C@H]1c3cc(Cl)ccc3OC[C@@H]1[C@@H]2c1ccccc1,13.9
17,COc1ccc(/C(C#N)=C/c2c(-c3ccc(Cl)cc3)nc3c(C)cccn23)cc1,15.7
18,CCC(Sc1ccccn1)C(=O)Nc1nnc(C)s1 (stereo not drawn),12.1
19,COc1cc(CNc2ccccc2SC)cc(OC)c1OC,12.8
20,CC(C)C(=O)NC(=O)[C@@H]1CCCN1C(=O)/C=C/c1ccccc1,12

row,SMILES,"hERG current change (%, negative = inhibition) at 1uM [%]"
1,Cc1ccc(NS(=O)(=O)c2cc(NC(=O)c3ccc4c(c3)NC(=O)CS4)ccc2Cl)c(C)c1,0.525
2,N#C/C(=C/c1ccc(N2CCOCC2)o1)C(=O)NC1CCCCC1,5.09
3,CC1C(=O)NC(=O)C1c1ccccc1 (stereo not drawn),13.3
4,Cn1c(NCc2cc(Br)ccc2O)nc2ccccc21,5.71
5,O=C(Nc1ccccc1)NC1(C(=O)NCCCN2CCOCC2)CCCCC1,5.99
6,O=c1cc(O)c2ccccc2n1Cc1ccccc1,14.7
7,CC1CN(C(=O)c2cc3c(=O)n4ccccc4nc3s2)CC(C)O1 (stereo not drawn),-0.692
8,Cc1ccc(CN2C(=O)C(CC(C)C)Nc3ncnc(N4CCN(c5ccccn5)CC4)c32)cc1.O=C(O)C(F)(F)F (stereo not drawn),-27.5
9,CC(C)OCC1CC(CC(=O)Nc2ccc([N+](=O)[O-])cc2)C(=O)O1 (stereo not drawn),5.8
10,CCOC(=O)C(NC(=O)c1cccnc1)(Nc1cccc(C)n1)C(F)(F)F (stereo not drawn),7.41
11,O=C(NC1CC1)c1cccc(Br)c1,14.2
12,Cc1cccc(NC(=S)NCCc2ccccn2)c1,12.5
13,CCNC(=S)N(CCc1c(C)[nH]c2ccc(Cl)cc12)Cc1cccnc1,-1.95
14,COc1cccc(NC(=S)N2CCC(N(C)CC3CCCO3)CC2)c1 (stereo not drawn),1.81
15,CCCCN1C(=O)CC(N2CCOCC2)C1=O (stereo not drawn),10.8
16,Cc1[nH]c(C(=O)N/N=C/c2ccc(N(C)C)cc2)c(C)c1C(=O)N/N=C/c1ccc(N(C)C)cc1,9.04
17,COc1ccc(C(=O)Nc2cc(OC)c(NC(=O)c3ccco3)cc2OC)cc1,4.64
18,COc1cc2ccccc2cc1C(=O)Nc1ccc(C)cn1,8.74
19,CCOC(=O)c1ccc(N/C(=N\S(=O)(=O)c2ccccc2C)c2ccccc2)cc1,9.53
20,CC(=O)N1CCN(CC(O)COc2ccc(S(=O)(=O)N3CCOCC3)cc2)CC1.Cl (stereo not drawn),14.1
